Experimental data reported in PubChem BioAssay AID686979 (National Center for Advancing Translational Sciences (NCATS), 2013).
In all, about 420,000 compounds went through this assay and about 50,000 (12%) were called active. The shares of active, inactive and inconclusive entries below differ from those in the screen. The call rests on the fitted dose curve; in most records, active means well fitted inhibition curve with a large enough effect; inconclusive means small, poorly fitted or top-dose-only effect; inactive means flat fitted curve, though single readings scatter. Potencies of inconclusive entries are left out as doubtful fits.
On the % scale 0 is the no-effect control and ±100 the full control effect; potency means the concentration at half of the fitted maximal effect; tags describe the fitted curve by direction and shape.

Assay: qHTS for Inhibitors of human tyrosyl-DNA phosphodiesterase 1 (TDP1): qHTS in cells in presence of CPT; further: nearly all actives have a fitted effect of over 55% in size
Conditions: chicken DT40 Tdp1-/-;hTDP1 cells + 20 nM CPT, ATP luminescence, 48 h; activity change, negative = growth inhibition: at 46.2 µM (top of the series)
Summary of the method: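 Cell growth measured by CellTiter-Glo luminescence after a minimum 48 h, 37 C compound exposure with 20 nM CPT in Tdp1-knockout DT40 cells stably expressing hTDP1, seeded 400/well; qHTS titration format.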
In the case of `Cc1ccccc1Nc1cc(C(=O)NCC2CCCO2)c2ccccc2n1` (centres undefined), the Potency is reported as active: 18.4 µM. In the case of `O=C(Nc1ccc(F)cc1F)c1cc2ccc3cccnc3c2[nH]1`, the Potency is reported as active: 2.91 µM. For `Cc1cccc(C)c1NC(=O)N1CCC(C(N)=O)(N2CCCCC2)CC1`, the “activity change, negative = growth inhibition” value was inactive: -1.43%. For `Cc1c(C(=O)NCCN2CCC(c3ccccc3)CC2)cnn1-c1nccc(-c2cccs2)n1`, the activity change, negative = growth inhibition was inactive: 7.64% [at 9.04 µM]. With `O=C(NCCc1cnc[nH]1)c1ccc(-c2ccccc2)cc1` the “activity change, negative = growth inhibition” value was inactive: -41.1%. In the case of `O=C(COc1ccc(C(=O)c2ccc(F)cc2)cc1)Nc1cccc(S(=O)(=O)N2CCOCC2)c1`, the Potency is reported as active: 23.1 µM. With `O=C(Nc1cccc2ccccc12)C1CCCC1` the “activity change, negative = growth inhibition” value was inactive: 12.9%. In the case of `COc1ccc(CNc2oc(COc3ccccc3)nc2C#N)cc1`, the Potency is reported as inconclusive [inhibitor, single point]. With `CC(C)C(=O)NC(C)c1nnc2n1CCN(Cc1cccc3ncccc13)CC2` (centres undefined) the activity change, negative = growth inhibition was inactive: 24.6% [at 9.04 µM]. With `CC(C)N(Cc1ccccc1)S(=O)(=O)c1ccc2c(c1)NC(=O)CO2` the “activity change, negative = growth inhibition” value was inactive: -29.7%. With `Cc1ccc2nc(N(CCCN(C)C)C(=O)c3ccc(S(=O)(=O)N4CCOCC4)cc3)sc2c1` the “activity change, negative = growth inhibition” value was inactive: -25.9%. With `Cc1ccc(-c2cc(C(=O)NN3CCOCC3)c3cc(Br)ccc3n2)o1` the Potency was inconclusive [inhibitor, full curve, poor fit]. With `Cc1occc1-c1nnc(SCC(=O)Nc2ccccn2)o1` the Potency was inconclusive [inhibitor, single point]. In the case of `Cc1cc2nc(-c3nnnn3Cc3ccccc3)c(=O)[nH]c2cc1C`, the Potency is reported as inconclusive [inhibitor, single point]. In the case of `c1ccc(-c2cc3c(N4CCCC4)ncnc3s2)cc1`, the Potency is reported as inconclusive [inhibitor, single point]. With `COc1cc(C2C3=C(COC3=O)Oc3cc4c(cc32)OCO4)ccc1O` (centres undefined) the Potency was active: 0.82 µM. With `Cc1nc2ccccc2nc1-c1csc(-c2ccccc2)n1` the Potency was active: 12.6 µM. With `Cc1nc(SCC(=O)N2CCCC2=O)nc(C)c1C` the “activity change, negative = growth inhibition” value was inactive: -0.323%. In the case of `COc1cccc(NC(=O)C2CC(=O)N(Cc3ccco3)C2)c1` (centres undefined), the “activity change, negative = growth inhibition” value is reported as inactive: 3.34%. In the case of `Cc1ccccc1Nc1cc(C(=O)NC2CCC(C)CC2)c2ccccc2n1` (centres undefined), the Potency is reported as active: 16.4 µM. With `CCOc1ccc(OCCNC(=O)c2cc(C3CC3)nc3c2cnn3C(C)C)cc1` the Potency was active: 16.4 µM. For `CCOC(=O)c1sc(NC(=O)c2ccccc2OC)nc1C`, the Potency was active: 8.2 µM. In the case of `Fc1ccc(NC(=S)SCc2ccc3c(c2)OCO3)cc1F`, the Potency is reported as inconclusive [inhibitor, partial curve]. In the case of `O=C(NCCCN1CCN(Cc2ccccc2Cl)CC1)Nc1ccccc1`, the “activity change, negative = growth inhibition” value is reported as inactive: -21.2%. For `CC1Cc2ccccc2N1C(=O)CSc1nnc(Cc2ccccc2)n1CCc1ccccc1` (centres undefined), the Potency was inconclusive [inhibitor, single point]. In the case of `NC(=O)c1nc[nH]c1C(=O)Nc1cccc(NC(=O)c2cccc(C(F)(F)F)c2)c1`, the “activity change, negative = growth inhibition” value is reported as inactive: -19.1%. With `Cc1cccc(CCN(CC(=O)NCc2ccc(F)cc2)C(=O)c2csnn2)c1` the “activity change, negative = growth inhibition” value was inactive: -3.36%. In the case of `Cc1c(Cl)cccc1NC(=S)NN`, the Potency is reported as inconclusive [inhibitor, single point]. For `O=C(COc1ccccc1F)OCC(=O)c1ccc([N+](=O)[O-])cc1`, the Potency was inconclusive [inhibitor, partial curve]. In the case of `CO/N=C\CC(=O)Nc1ccc(Cl)cc1Cl`, the Potency is reported as active: 11.6 µM. For `CS(=O)(=O)NCCNc1ccc(C(F)(F)F)cc1[N+](=O)[O-]`, the “activity change, negative = growth inhibition” value was inactive: -0.812%. With `COc1cccc(-n2c(-c3ccco3)nc3c(cnn3-c3ccccc3C)c2=O)c1` the Potency was active: 20.6 µM. In the case of `CSc1ccc(/C=N/n2c(Cc3ccc(Br)cc3)n[nH]c2=S)cc1`, the Potency is reported as inconclusive [inhibitor, single point]. For `CCN(CC)CCCn1c(=S)[nH]c2ccc(Cl)cc2c1=O`, the “activity change, negative = growth inhibition” value was inactive: -4.24%. For `CC(C)c1ccc(C(=O)Nc2ccc(-c3nc4ccccc4s3)c(Cl)c2)cc1`, the Potency was active: 6.51 µM. In the case of `COc1ccc(S(=O)(=O)Cc2ccc(C(=O)NC(C)C)o2)cc1`, the Potency is reported as inconclusive [inhibitor, single point]. With `FC(F)(F)c1cccc(NC(=S)NCCc2ccccn2)c1` the Potency was inconclusive [inhibitor, single point]. With `COc1ccc2oc(-c3ccc(C)c(NC(=O)c4sc5ccccc5c4Cl)c3)nc2c1` the “activity change, negative = growth inhibition” value was inactive: -24%. In the case of `CCc1cc2c(N3CCN(c4nnc(CC)s4)CC3)ncnc2s1`, the Potency is reported as active: 10.3 µM. In the case of `COc1cccc(C(=O)NCC(c2ccc(N(C)C)cc2)N2CCc3ccccc32)c1OC` (centres undefined), the Potency is reported as active: 14.6 µM. For `Cc1cc(C)n(-c2ccc(C(=O)OCn3nnc4ccccc4c3=O)cc2)n1`, the Potency was inconclusive [inhibitor, single point]. For `COC(=O)C(NC(=O)c1ccc(OC)cc1)(Nc1ncc(S(=O)(=O)c2ccc([N+](=O)[O-])cc2)s1)C(F)(F)F` (centres undefined), the Potency was inconclusive [inhibitor, single point]. For `COc1ccc(-c2nc(Cn3c(SCc4cccc(F)c4)nc4cccnc43)c(C)o2)cc1`, the Potency was inconclusive [inhibitor, single point]. In the case of `CN(NS(C)(=O)=O)c1ncc(C(F)(F)F)cc1Cl`, the “activity change, negative = growth inhibition” value is reported as inactive: -11.9%. In the case of `CN1CCN(C(=O)c2cc(-c3ccccc3)on2)CC1`, the “activity change, negative = growth inhibition” value is reported as inactive: -3%. In the case of `NC(=O)CC(NC(=O)Cc1ccc(Cl)cc1)c1ccc(NCc2ccccc2)c([N+](=O)[O-])c1` (centres undefined), the Potency is reported as inconclusive [inhibitor, partial curve]. In the case of `CCSc1nnc2c(n1)OC(c1ccc(C(=O)O)cc1)N(C(C)=O)c1ccccc1-2` (centres undefined), the “activity change, negative = growth inhibition” value is reported as inactive: 27.7%. In the case of `c1ccc(-c2cnnc(SCc3cn4cccnc4n3)n2)cc1`, the Potency is reported as inconclusive [inhibitor, single point]. With `CN1c2ccc(Cl)cc2C(=O)NC1c1ccc([N+](=O)[O-])s1` (centres undefined) the Potency was active: 20.6 µM. In the case of `CCSc1nnc(NC(=O)Cc2ccc(OC)c(OC)c2)s1`, the “activity change, negative = growth inhibition” value is reported as inactive: 1.3%. In the case of `COc1ccc(CNC(=O)C2COc3ccccc3O2)c(OC)c1` (centres undefined), the “activity change, negative = growth inhibition” value is reported as inactive: -28.3%. With `O=C(Cc1ccc([N+](=O)[O-])cc1)c1c(O)cc(O)cc1O` the “activity change, negative = growth inhibition” value was inactive: 12.9%. With `O=C(OCc1nc2ccc(Cl)cc2n1CCO)c1ccc(O)cc1` the Potency was inconclusive [inhibitor, single point]. For `Cc1ccc(N2CCN(C(C(=O)Nc3c(C)cccc3C)c3cc4ccccc4o3)CC2)cc1` (centres undefined), the Potency was active: 13 µM. In the case of `CCN(/C=N/c1sc2c(c1C#N)CCCCC2)CC`, the Potency is reported as inconclusive [inhibitor, single point]. In the case of `CC(=O)O[C@H]1[C@H](C)OC=C[C@@H]1OC(C)=O`, the Potency is reported as inconclusive [inhibitor, single point]. For `CC(=O)Nc1nc2n(n1)C(c1ccc(Cl)cc1)C=C(C)N2` (centres undefined), the “activity change, negative = growth inhibition” value was inactive: 3.38%. With `O=C(c1cc(S(=O)(=O)N2CCOCC2)ccc1Cl)N1CCC(Cc2ccccc2)CC1` the Potency was inconclusive [inhibitor, partial curve, poor fit]. For `COc1ccc(N2CCN(c3oc(-c4ccccc4C)nc3S(=O)(=O)c3ccccc3)CC2)cc1`, the Potency was active: 11.6 µM. In the case of `Cc1cccc(OCC(=O)Nc2c(C(=O)N3CCN(c4ccccc4)CC3)oc3ccccc23)c1`, the Potency is reported as inconclusive [inhibitor, single point]. In the case of `c1ccc(-c2ccc(OCCCNC3CCCC3)cc2)cc1`, the Potency is reported as active: 14.6 µM. For `CC(C)(C)c1cc[n+](CC(=O)Nc2cc(C(F)(F)F)ccc2N2CCOCC2)cc1`, the Potency was inconclusive [inhibitor, single point]. With `CC(=O)Nc1ccc(S(=O)(=O)N2CCC(c3nc4ccccc4[nH]3)CC2)cc1` the Potency was inconclusive [inhibitor, full curve, poor fit]. For `CNc1nc(NC#N)nc(SC)n1`, the Potency was active: 20.6 µM. With `CCCCN(CCCC)S(=O)(=O)c1ccc(C(=O)Nc2sc3c(c2C(N)=O)CCN(CC)C3)cc1` the Potency was inconclusive [inhibitor, single point]. For `COc1cccc(C(=O)C(C#N)=C(SC)SC)c1`, the Potency was active: 2.59 µM. In the case of `CCO[C@@H]1OC(C(=O)NCc2nc3ccccc3[nH]2)=C[C@H](c2ccccc2)[C@H]1CCCO`, the Potency is reported as inconclusive [inhibitor, single point]. In the case of `CCOC(=O)c1nnn(-c2nonc2N)c1-c1ccc(F)cc1`, the “activity change, negative = growth inhibition” value is reported as inactive: -4.49%. In the case of `Cc1cn([C@H]2C[C@H](O)[C@@H](CNCc3ccccc3OCCCN3CCOCC3)O2)c(=O)[nH]c1=O`, the “activity change, negative = growth inhibition” value is reported as inactive: 8.33%. With `Cc1ccc(NCC2(N=Cc3ccccc3)OC(CO)C(O)C2O)cc1` (centres undefined) the Potency was inconclusive [inhibitor, single point]. In the case of `CCc1nc2ccccc2n1CCCCOc1ccc(Cl)cc1`, the Potency is reported as active: 20.6 µM. For `O=C(c1cc(S(=O)(=O)N2CCOCC2)ccc1F)N1CCc2ccccc21`, the Potency was inconclusive [inhibitor, single point]. With `CCOc1ccccc1Nc1nc2ccccc2n1C(C)C` the Potency was inconclusive [inhibitor, single point]. For `C=CCc1ccc(OCCCCN2CC(C)CC(C)C2)c(OC)c1` (centres undefined), the Potency was active: 16.4 µM. For `COc1ccc(C2N(c3cccc(Cl)c3)C(=O)C3CCCN32)cc1` (centres undefined), the “activity change, negative = growth inhibition” value was inactive: -4.11%. With `CCOC(=O)C1(c2ccccc2)CCCNC1=O` (centres undefined) the Potency was inconclusive [inhibitor, partial curve]. With `CCCOC(=O)CCc1n[nH]c(=O)[nH]c1=O` the “activity change, negative = growth inhibition” value was inactive: 7.26%. In the case of `CCN1CCc2c(sc(NC(=O)Cc3ccccc3)c2C(N)=O)C1`, the “activity change, negative = growth inhibition” value is reported as inactive: 1.09%. For `COc1cccc(C(=O)Nc2nc(-c3ccccc3)c(-c3ccccc3)o2)c1`, the Potency was inconclusive [inhibitor, single point].
